{"source": "patent US8318808B2", "about": "“Zn2+chelating motif-tethered short-chain fatty acids as a novel class of histone deacetylase inhibitors” (The Ohio State University Research Foundation, priority 2007, dated 2012)", "key": {"[1]": {"molecular_target": "histone deacetylase (HDAC) activity of DU-145 nuclear extract", "test": "In vitro HDAC assay (histone deacetylase assay kit, [3H]-acetyl histone H4 peptide)", "format": "biochemical", "conditions": "read-out: HDAC inhibition IC50", "description": "In vitro HDAC assay. HDAC activity was analyzed by using a histone deacetylase assay kit (Upstate Biotechnology, Lake Placid, N.Y.) by following the manufacturer's instruction with slight modifications. […] The release of [^3 H]-acetate into the supernatant was measured to calculate the HDAC activity. Sodium butyrate (0.25-1 mM) was used as a positive control."}, "[2]": {"test_system": "phospho-Akt in PC-3 cells (PTEN-/-)", "test": "Activation status of Akt in PC-3 cells", "format": "cell-based", "description": "The effect of these agents on the activation status of Akt in PC-3 cells (PTEN^−/−) was also examined. Akt is constitutively activated in PC-3 cells due to lack of functional PTEN, which contributes to the androgen independency and chemotherapeutic resistance of these cells."}}, "note": "Values joined by “and” are separate entries in the source; they are usually repeats but may differ in a detail not shown here. Equal values may be shown once. Some results were stated once for a whole list of compounds, not compound by compound. For some assays here: For at least one compound, name, drawing or mass did not settle the structure.", "data": [{"smiles": "CCCC(CCC)C(=O)Nc1ccc(C(=O)NO)cc1", "note": "[compound 4, N-Hydroxy-4-(2-propyl-pentanoylamino)-benzamide]", "values": [{"measurement": "IC50", "setting": "[1]", "value": "5 to 8 µM and < 10 µM"}]}, {"smiles": "CCCC(CCC)C(=O)Nc1ccc(CCC(=O)NO)cc1", "note": "[compound 8]", "values": [{"measurement": "IC50", "setting": "[1]", "value": "5 to 8 µM and < 10 µM"}]}, {"smiles": "CCCC(CCC)C(=O)Nc1ccc(C=CC(=O)Nc2ccccc2N)cc1", "note": "[compound 9, N-(2-Amino-phenyl)-3-[4-(2-propyl-pentanoylamino)-phenyl]-acrylamide]", "values": [{"measurement": "IC50", "setting": "[1]", "value": "10 to 20", "unit": "µM"}]}, {"smiles": "CC(/C=C/C(=O)NO)=C\\[C@@H](C)C(=O)c1ccc(N(C)C)cc1", "note": "[TSA, trichostatin A]", "values": [{"measurement": "concentration causing significant Akt dephosphorylation (as low as)", "setting": "[2]", "value": "≤ 1", "unit": "µM"}]}, {"smiles": "CCCC(CCC)C(=O)NCc1ccc(C(=O)Nc2ccccc2N)cc1", "note": "[compound 1, N-(2-Amino-phenyl)-4-[(2-propyl-pentanoylamino)-methyl]-benzamide]", "values": [{"measurement": "IC50", "setting": "[1]", "value": "5 to 8 µM and < 10 µM"}]}, {"smiles": "CCCC(CCC)C(=O)Nc1ccc(C(=O)Nc2ccccc2N)cc1", "note": "[compound 3, N-(2-Amino-phenyl)-4-(2-propyl-pentanoylamino)-benzamide]", "values": [{"measurement": "IC50", "setting": "[1]", "value": "10 to 20", "unit": "µM"}]}, {"smiles": "CCCC(CCC)C(=O)Nc1ccc(C=CC(=O)NO)cc1", "note": "[compound 10, N-Hydroxy-3-[4-(2-propyl-pentanoylamino)-phenyl]-acrylamide]", "values": [{"measurement": "IC50", "setting": "[1]", "value": "10 to 20", "unit": "µM"}]}, {"smiles": "CCCC(CCC)C(=O)NCc1ccc(C(=O)NO)cc1", "note": "[compound 2, N-Hydroxy-4-[(2-propyl-pentanoylamino)-methyl]-benzamide]", "values": [{"measurement": "IC50", "setting": "[1]", "value": "5 to 8 µM and < 10 µM"}]}]}
